Laboratory results from the supplement of paper PMC11417369.
± gives the standard deviation of the averaged measurements. This is one part of the list.

Test system: PfAP2-EXP AP2 domain (GST-tagged)
Test: gcPBM binding intensity (ln(normalized median fluorescence intensity)); higher = stronger DNA binding
Outline: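 Each value is the highest Masliner-normalised natural-log median intensity across replicate spots of either orientation of a probe. The probes were primer-extended double-stranded 36-bp intergenic genomic sequences on an Agilent 4 × 180k array, alongside negative controls, exposed for 1 h to GST-tagged P. falciparum DNA-binding domains expressed in E. coli. Bound protein was picked up with Alexa488 anti-GST antibody and scanned at 488 nm.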

Sequence	gcPBM binding intensity (ln)
TAAGGATATATATATTCACACACACCGGGAAATATA [CACACA_site8020]	8.83 ± 0.38
TTTTTATTTTTTGAAACACACACAAAAAAAATGATA [CACACA_site8564]	8.51 ± 0.4
CATTTTTTGCTTTCAACACACATACAATATATATAA [CACACA_site6127]	8.69 ± 0.49
CTTTATTTTTTATACACACACAATATGTATATATAT [CACACA_site3550]	8.69 ± 0.36
AAGGATCACGCACAAACACACATATTTATATTTATA [CACACA_site6405]	8.39 ± 0.33
TATATATGGAAAAGAGTCAAAAAGAAAAAAGAAAAA [CACACA_negctrl_site1374]	8.56 ± 0.62
TATGAAATATTTATACACAGAACTTCATAATTTTCA [TGCATGCA_negctrl_site509]	8.2 ± 0.42
TTTTTGTATTCTTCTTCTTCCAGACTACATTATGTC [XGTACX_negctrl_site235]	8.75 ± 0.45
ATATATTTAAAATTGACACACATTTAATGACATTTT [CACACA_site3112]	8.24 ± 0.33
ACTAAATAAATAAATATAATATATAAATATGTATGT [TGCATGCA_negctrl_site583]	8.31 ± 0.33
ACATGCAAGAAGAAATGTACTTAACATCTATATAGA [XGTACX_site7338]	8.78 ± 0.44
TATAATATATAAAAATGTACACATAAATATAAGTAG [XGTACX_site665]	8.78 ± 0.3
CACAAACAGACAAACACACACACACGGACATACATA [CACACA_site6350]	8.69 ± 0.53
GTATATATGTTTTATACACACATTAAAGGAAATATA [CACACA_site984]	8.54 ± 0.46
TTACATATTCATAAAAGTACATAATTATAAAAGGTA [XGTACX_site906]	8.67 ± 0.4
TTTTATACATATTTTACACACTAAAATATACAGATA [CACACA_site4333]	8.41 ± 0.26
AAAATTAATTTATTTACACACAATATTAAAATATTT [CACACA_site7512]	8.48 ± 0.52
TAAAACTTAATGTTTTGTACATATTCTTCTTTATTT [XGTACX_site4271]	8.49 ± 0.26
AATCAAAAAGGAACCATAATATTACAACTATATATA [CACACA_negctrl_site381]	8.47 ± 0.47
TTAACAAAGAAACACACACACACACCCAAAAAAAAA [CACACA_site516]	8.54 ± 0.53
ATTATTATAGATAAAACACACAATTTTGTTTTCACA [CACACA_site7792]	8.28 ± 0.4
AAAAAAAAAATTAAATGTACATATATAATATATATA [XGTACX_site7245]	8.62 ± 0.014

Sequence	gcPBM binding intensity (ln)
GCCATAAAGATATATACACACATAAAAAAAAGTTAT [CACACA_site6674]	8.65 ± 0.52
TTATATTTTATTATGTGTACGTATATAATATAATAT [XGTACX_site6230]	8.52 ± 0.16
AAACAATTATTATATTGTACATATATTACATTATTA [XGTACX_site1089]	8.25 ± 0.44
GTTATTAAATAATTCACACACATATATAAATAAATA [CACACA_site7129]	8.31 ± 0.48
ATATGTATATAATAAGAACACACATATATTTAATTT [CACACA_site8961]	8.38 ± 0.33
ATAAAAATATATGAAACACACAGTTTCTATAAGAAA [CACACA_site4156]	8.34 ± 0.41
TAATATACTATAAATACACACAAGTGTACATACTTC [CACACA_site983]	8.47 ± 0.11
TTAAAAAGAGGTGACACACACATATAAATCTAAATC [CACACA_site3738]	8.66 ± 0.38
TATTAAAAGGTGAGTACACACATATCTGAGTATATA [CACACA_site5192]	8.39 ± 0.23
TACAATATAATTTAATGTACATGTGAATATATATAT [XGTACX_site4675]	9.34 ± 0.11
TTGTGCTAAACAAAAAAAAATATATATAAAAAAATA [XGTACX_negctrl_site388]	8.41 ± 0.26
ATATGTATATTTTTGATGTGCTTTTATTTGGTTATT [CACACA_negctrl_site626]	8.53 ± 0.42
CATCCACATAGATGTACACACATATATATATATATA [CACACA_site5616]	10.1 ± 0.3
ATTTTTTTATAATCAACCCATTTCCTACATTTTTAT [CACACA_negctrl_site1237]	8.75 ± 0.52
AAAAAAAATACATACACACACACACGCACATATATA [CACACA_site7645]	8.76 ± 0.57
CTTCATAAAAATTGCACACATATAATAATGTACATA [CACACA_site2212]	8.57 ± 0.23
ATATCTCAACATATCACACATATATATATATAATAT [CACACA_site5018]	8.67 ± 0.44
AATAAATATAAATAAATAAATATATATATATATTTG [CACACA_negctrl_site1486]	8.13 ± 0.22
TATTTTTTTTCGTAATGTACATAAAAAATGCAAAAA [XGTACX_site8491]	9.16 ± 0.64
TATATATATATAACAACACACACAGATCATAAAACT [CACACA_site8670]	9.91 ± 0.14
ATTATATAATTTAATCGTACACAAATATTTGTTAGT [XGTACX_site5913]	8.71 ± 0.45
CTTTTAAAAAAATTCATGCACACGAAATAAAAAGCA [CACACA_site929]	8.92 ± 0.28

Sequence	gcPBM binding intensity (ln)
TATTATTCCATGTGAAGTACAGAAATATAAATAAAT [XGTACX_site5106]	8.63 ± 0.35
TAAGTAATAGTTTGTGCACACTCAAGTATATCATAT [CACACA_site4035]	8.865 ± 0.021
CCATAATTATATGCCAGTACATATTTGTAACAAAAA [XGTACX_site851]	8.67 ± 0.41
TTTATTTTTCATTGGGGTACACAAGTTTATTTTATT [XGTACX_site4263]	9.04 ± 0.46
CAAAATATTTTTATAACACACATATATAGAATGTGC [CACACA_site1145]	8.45 ± 0.46
TATCATCTTAATATCGTGCACATTTATAGAACGAAA [GTGCAC_site9992]	9.13 ± 0.24
ATACCTCAAATTGATACACACAAAAAAAGTAAATTA [CACACA_site3134]	8.64 ± 0.6
TTTTACTATACTTATGCACACAAGATAAATACATAT [CACACA_site5619]	8.83 ± 0.028
CTATTTTAATATTTTACACACCATGTAAAATATATA [CACACA_site5732]	8.48 ± 0.3
ATACACTAGAAAATTTTATAGTATTATTAATGTTAA [GTGCAC_negctrl_site101]	8.19 ± 0.42
TTTTTATTCGTTAAATGTACAAAAAAAATGTTATAT [XGTACX_site2804]	8.42 ± 0.41
GCTTAGTTATATAACTGTACTATTTTTATTTATATG [XGTACX_site884]	9.16 ± 0.83
AAATACATACATTAATGTACAAATAGAAACACTCTT [XGTACX_site1512]	8.51 ± 0.18
AAATATAAGTAAATAAATAAATATATAAATATATAA [TGCATGCA_negctrl_site441]	8.12 ± 0.28
AATAAGATAAGGAAAAGTACTTATAATTAAACTAAT [XGTACX_site1850]	8.79 ± 0.43
CTCATAGTTGGGTGCACACAAAAAATTAAAAAAATA [CACACA_site3032]	9.81 ± 0.94
ATAAAGTAAGAAGAAATAATGATTTTCATGGAAAAC [XGTACX_negctrl_site322]	8.51 ± 0.47
TTATTTAAAAATAGCACACATTATATATATATATAT [CACACA_site5556]	9.95 ± 0.29
ACAGATGATCAAAATTGTACAGAGTTATATTATATT [XGTACX_site4642]	8.46 ± 0.57
CTTATACAAAAAAAAAGTACATAACATAATAAGAAT [XGTACX_site6782]	8.96 ± 0.42
GATAAACCATATATAACACACATATGAATATTGCAA [CACACA_site6735]	8.59 ± 0.4
CACCCATACAGACATACACACACATATATATTAATA [CACACA_site8077]	8.85 ± 0.66

Sequence	gcPBM binding intensity (ln)
ATATCATATATAAGTCGTACGATGAATAGAATTTTT [XGTACX_site7586]	8.73 ± 0.52
CACATGTATTTATAGGTGCGTAAAAACACTTTATAT [GTGCAC_site9501]	8.7 ± 0.057
ACTAATTACTATAAAACACACATATATTTATTTATA [CACACA_site7263]	8.51 ± 0.34
TTATAGAAACATTGGTGTACGATATTTACTTCTTTC [XGTACX_site7314]	8.36 ± 0.48
AATCATATTAGTATGGTGCAATATATATATAAATAT [GTGCAC_site9800]	8.99 ± 0.028
GGAATAGTCGGGTGCATACACACCTTAAATATAATA [CACACA_site1081]	8.84 ± 0.31
AAAGAAAATTCAATAGTGCATAAAAATATATATGTT [GTGCAC_site9680]	8.64 ± 0.27
TAAAAAAATTCATGCACACGAAATAAAAAGCACCTT [CACACA_site4667]	9.14 ± 0.057
TTTTTTAAAAGATAATATTTTATTAATGTATTCTCA [GTGCAC_negctrl_site598]	7.85 ± 0.37
AATACATACATACATACACACATATATATATATTAT [CACACA_site3575]	8.78 ± 0.33
TTTTCATTTTTTCGTTGTACATAAATAATATATATT [XGTACX_site856]	8.96 ± 0.38
AAACATAAATTTTATTGTACATTATATAGAATTTTC [XGTACX_site576]	8.21 ± 0.51
TTTTACTATACTTATGCACACAAGATATATACATAT [CACACA_site2968]	8.6 ± 0.3
TATTAAAAGGTGAGTACACACATATATGTGTATATA [CACACA_site7070]	8.63 ± 0.14
ATATATATATATATATGTACACAGGACAATAATCCT [XGTACX_site6383]	10.2 ± 0.33
ATCATGAAATATATTTGTACACATAATAATATAATA [XGTACX_site8798]	8.57 ± 0.28
ATTTGGCAGAAACACACACACACACCCACCCACATA [CACACA_site589]	9.07 ± 0.44
TTTTTTTTTATAAATACACACGTACGGGTGCATAAC [CACACA_site8444]	9.1 ± 0.38
TTTTTGTTTGAACACTGTACGTATAAATATAAAAGT [XGTACX_site6476]	8.885 ± 0.078
AATGTACACCCACCCACACACAAACAAATATATATA [CACACA_site5521]	9.51 ± 0.59
AATGTGTTTTTTTTTTTTTTTTTTTTCAATCTCTAT [CACACA_negctrl_site794]	8.3 ± 0.52
GAAAAAAGAAAAAAAAGTACACACATGTATATTAAT [XGTACX_site5265]	8.59 ± 0.55
